# The supplement of paper PMC8728848
# The other results are listed elsewhere or left out.
# B1: CLEC5A (Homo sapiens), Q9NY25 (protein)
# chain: MNWHMIISGLIVVVLKVVGMTLFLLYFPQIFNKSNDGFTTTRSYGTVSQIFGSSSPSPNGFITTRSYGTVCPKDWEFYQARCFFLSTSESSWNESRDFCKGKGSTLAIVNTPEKLKFLQDITDAEKYFIGLIYHREEKRWRWINNSVFNGNVTNQNQNFNCATIGLTKTFDAASCDISYRRICEKNAK
# Assays:
# Experiment in all cases: glycan array binding signal (z-score within array); higher = stronger binding
# Details in all cases: glycan notation: IUPAC condensed, linker removed
# [1] = biological target: GlcNAc(b1-2)[GlcNAc(b1-4)]Man(a1-3)[GlcNAc(b1-2)Man(a1-6)]Man(b1-4)GlcNAc(b1-4)GlcNAc
# In short: (§1)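 Glycan array data came from 3228 arrays in the Consortium for Functional Glycomics database, and only arrays with an available protein sequence were kept. Glycan names were put into IUPAC-condensed notation, and columns mapping to the same glycan were averaged. The binding signal is a within-array Z-score, averaged across arrays of one protein sequence run at different concentrations or buffers and across linkers. A negative Z-score can be read as non-binding.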
# [2] = biological target: GlcNAc(b1-2)[GlcNAc(b1-4)]Man(a1-3)[GlcNAc(b1-2)Man(a1-6)][GlcNAc(b1-4)]Man(b1-4)GlcNAc(b1-4)GlcNAc
# In short: as §1
# [3] = biological target: GlcNAc(b1-2)[GlcNAc(b1-4)]Man(a1-3)[GlcNAc(b1-2)[GlcNAc(b1-4)][GlcNAc(b1-6)]Man(a1-6)][GlcNAc(b1-4)]Man(b1-4)GlcNAc(b1-4)GlcNAc
# In short: as §1
# [4] = biological target: GlcNAc(b1-2)[GlcNAc(b1-4)]Man(a1-3)[GlcNAc(b1-2)[GlcNAc(b1-6)]Man(a1-6)]Man(b1-4)GlcNAc(b1-4)GlcNAc
# In short: as §1
# [5] = biological target: GlcNAc(b1-2)[GlcNAc(b1-4)]Man(a1-3)[GlcNAc(b1-4)][GlcNAc(b1-2)Man(a1-6)]Man(b1-4)GlcNAc(b1-4)GlcNAc
# In short: as §1
# [6] = biological target: GlcNAc(b1-2)[GlcNAc(b1-4)]Man(a1-3)[GlcNAc(b1-4)][GlcNAc(b1-2)[GlcNAc(b1-6)]Man(a1-6)]Man(b1-4)GlcNAc(b1-4)GlcNAc
# In short: as §1
# [7] = biological target: GlcNAc(b1-2)[GlcNAc(b1-4)]Man(a1-3)[GlcNAc(b1-4)][GlcNAc(b1-2)[GlcNAc(b1-6)]Man(a1-6)]Man(b1-4)GlcNAc(b1-4)[Fuc(a1-6)]GlcNAc
# In short: as §1
# [8] = biological target: GlcNAc(b1-2)[GlcNAc(b1-6)]Man(a1-6)[GlcNAc(b1-2)Man(a1-3)]Man(b1-4)GlcNAc(b1-4)GlcNAc
# In short: as §1
# [9] = biological target: GlcNAc(b1-2)[GlcNAc(b1-6)]Man(a1-6)[GlcNAc(b1-2)Man(a1-3)]Man(b1-4)GlcNAc(b1-4)[Fuc(a1-6)]GlcNAc
# In short: as §1
# [10] = biological target: GlcNAc(b1-2)[GlcNAc(b1-6)]Man(a1-6)[GlcNAc(b1-4)][GlcNAc(b1-2)Man(a1-3)]Man(b1-4)GlcNAc(b1-4)GlcNAc
# In short: as §1
# [11] = biological target: GlcNAc(b1-3)Fuc
# In short: as §1
# [12] = biological target: GlcNAc(b1-3)Gal
# In short: as §1
# [13] = biological target: GlcNAc(b1-3)Gal(b1-3)GalNAc
# In short: as §1
# [14] = biological target: GlcNAc(b1-3)Gal(b1-4)Glc
# In short: as §1
# [15] = biological target: GlcNAc(b1-3)Gal(b1-4)GlcNAc
# In short: as §1
# [16] = biological target: GlcNAc(b1-3)Gal(b1-4)GlcNAc(b1-2)Man(a1-3)[GlcNAc(b1-3)Gal(b1-4)GlcNAc(b1-2)Man(a1-6)]Man(b1-4)GlcNAc(b1-4)GlcNAc
# In short: as §1
# [17] = biological target: GlcNAc(b1-3)Gal(b1-4)GlcNAc(b1-2)Man(a1-3)[GlcNAc(b1-3)Gal(b1-4)GlcNAc(b1-2)Man(a1-6)]Man(b1-4)GlcNAc(b1-4)[Fuc(a1-6)]GlcNAc
# In short: as §1
# [18] = biological target: GlcNAc(b1-3)Gal(b1-4)GlcNAc(b1-2)[GlcNAc(b1-3)Gal(b1-4)GlcNAc(b1-6)]Man(a1-6)[GlcNAc(b1-3)Gal(b1-4)GlcNAc(b1-2)Man(a1-3)]Man(b1-4)GlcNAc(b1-4)GlcNAc
# In short: as §1
# [19] = biological target: GlcNAc(b1-3)Gal(b1-4)GlcNAc(b1-3)Gal(b1-4)GlcNAc
# In short: as §1
# [20] = biological target: GlcNAc(b1-3)Gal(b1-4)GlcNAc(b1-3)Gal(b1-4)GlcNAc(b1-2)Man(a1-3)[GlcNAc(b1-3)Gal(b1-4)GlcNAc(b1-3)Gal(b1-4)GlcNAc(b1-2)Man(a1-6)]Man(b1-4)GlcNAc(b1-4)GlcNAc
# In short: as §1
# [21] = biological target: GlcNAc(b1-3)Gal(b1-4)GlcNAc(b1-3)Gal(b1-4)GlcNAc(b1-2)Man(a1-3)[GlcNAc(b1-3)Gal(b1-4)GlcNAc(b1-3)Gal(b1-4)GlcNAc(b1-2)Man(a1-6)]Man(b1-4)GlcNAc(b1-4)[Fuc(a1-6)]GlcNAc
# In short: as §1
# [22] = biological target: GlcNAc(b1-3)Gal(b1-4)GlcNAc(b1-3)Gal(b1-4)GlcNAc(b1-2)[GlcNAc(b1-3)Gal(b1-4)GlcNAc(b1-3)Gal(b1-4)GlcNAc(b1-6)]Man(a1-6)[GlcNAc(b1-3)Gal(b1-4)GlcNAc(b1-3)Gal(b1-4)GlcNAc(b1-2)Man(a1-3)]Man(b1-4)GlcNAc(b1-4)[Fuc(a1-6)]GlcNAc
# In short: as §1
# [23] = biological target: GlcNAc(b1-3)Gal(b1-4)GlcNAc(b1-3)Gal(b1-4)GlcNAc(b1-3)Gal(b1-4)GlcNAc(b1-2)Man(a1-3)[GlcNAc(b1-3)Gal(b1-4)GlcNAc(b1-3)Gal(b1-4)GlcNAc(b1-3)Gal(b1-4)GlcNAc(b1-2)Man(a1-6)]Man(b1-4)GlcNAc(b1-4)GlcNAc
# In short: as §1
# [24] = biological target: GlcNAc(b1-3)Gal(b1-4)GlcNAc(b1-3)Gal(b1-4)GlcNAc(b1-3)Gal(b1-4)GlcNAc(b1-2)Man(a1-3)[GlcNAc(b1-3)Gal(b1-4)GlcNAc(b1-3)Gal(b1-4)GlcNAc(b1-3)Gal(b1-4)GlcNAc(b1-2)Man(a1-6)]Man(b1-4)GlcNAc(b1-4)[Fuc(a1-6)]GlcNAc
# In short: as §1
# [25] = biological target: GlcNAc(b1-3)Gal(b1-4)GlcNAc(b1-3)Gal(b1-4)GlcNAc(b1-3)Gal(b1-4)GlcNAc(b1-2)[GlcNAc(b1-3)Gal(b1-4)GlcNAc(b1-3)Gal(b1-4)GlcNAc(b1-3)Gal(b1-4)GlcNAc(b1-6)]Man(a1-6)[GlcNAc(b1-3)Gal(b1-4)GlcNAc(b1-3)Gal(b1-4)GlcNAc(b1-3)Gal(b1-4)GlcNAc(b1-2)Man(a1-3)]Man(b1-4)GlcNAc(b1-4)[Fuc(a1-6)]GlcNAc
# In short: as §1
# [26] = biological target: GlcNAc(b1-3)Gal(b1-4)GlcNAc(b1-3)Gal(b1-4)GlcNAc(b1-3)Gal(b1-4)GlcNAc(b1-3)Gal(b1-4)GlcNAc(b1-2)Man(a1-3)[GlcNAc(b1-3)Gal(b1-4)GlcNAc(b1-3)Gal(b1-4)GlcNAc(b1-3)Gal(b1-4)GlcNAc(b1-3)Gal(b1-4)GlcNAc(b1-2)Man(a1-6)]Man(b1-4)GlcNAc(b1-4)GlcNAc
# In short: as §1
# [27] = biological target: GlcNAc(b1-3)Gal(b1-4)GlcNAc(b1-3)Gal(b1-4)GlcNAc(b1-3)Gal(b1-4)GlcNAc(b1-3)Gal(b1-4)GlcNAc(b1-2)Man(a1-3)[GlcNAc(b1-3)Gal(b1-4)GlcNAc(b1-3)Gal(b1-4)GlcNAc(b1-3)Gal(b1-4)GlcNAc(b1-3)Gal(b1-4)GlcNAc(b1-2)Man(a1-6)]Man(b1-4)GlcNAc(b1-4)[Fuc(a1-6)]GlcNAc
# In short: as §1
# [28] = biological target: GlcNAc(b1-3)Gal(b1-4)GlcNAc(b1-3)Gal(b1-4)GlcNAc(b1-3)Gal(b1-4)GlcNAc(b1-3)Gal(b1-4)GlcNAc(b1-2)[GlcNAc(b1-3)Gal(b1-4)GlcNAc(b1-3)Gal(b1-4)GlcNAc(b1-3)Gal(b1-4)GlcNAc(b1-3)Gal(b1-4)GlcNAc(b1-6)]Man(a1-6)[GlcNAc(b1-3)Gal(b1-4)GlcNAc(b1-3)Gal(b1-4)GlcNAc(b1-3)Gal(b1-4)GlcNAc(b1-3)Gal(b1-4)GlcNAc(b1-2)Man(a1-3)]Man(b1-4)GlcNAc(b1-4)[Fuc(a1-6)]GlcNAc
# In short: as §1
# [29] = biological target: GlcNAc(b1-3)Gal(b1-4)GlcNAc(b1-3)Gal(b1-4)GlcNAc(b1-3)GalNAc
# In short: as §1
# [30] = biological target: GlcNAc(b1-3)Gal(b1-4)GlcNAc(b1-3)GalNAc
# In short: as §1
# [31] = biological target: GlcNAc(b1-3)Gal(b1-4)GlcNAc(b1-3)[GlcNAc(b1-3)Gal(b1-4)GlcNAc(b1-3)]GalNAc
# In short: as §1
# [32] = biological target: GlcNAc(b1-3)Gal(b1-4)GlcNAc(b1-6)[Gal(b1-3)]GalNAc
# In short: as §1
# [33] = biological target: GlcNAc(b1-3)Gal(b1-4)GlcNAc(b1-6)[GlcNAc(b1-3)Gal(b1-3)]GalNAc
# In short: as §1
# [34] = biological target: GlcNAc(b1-3)Gal(b1-4)GlcNAc(b1-6)[GlcNAc(b1-3)]Gal(b1-4)GlcNAc
# In short: as §1
# [35] = biological target: GlcNAc(b1-3)GalNAc
# In short: as §1
# [36] = biological target: GlcNAc(b1-3)Man
# In short: as §1
# [37] = biological target: GlcNAc(b1-3)[GlcNAc(b1-4)][GlcNAc(b1-6)]GlcNAc
# In short: as §1
# [38] = biological target: GlcNAc(b1-3)[GlcNAc(b1-6)]Gal(b1-4)GlcNAc
# In short: as §1
# [39] = biological target: GlcNAc(b1-3)[GlcNAc(b1-6)]Gal(b1-4)GlcNAc(b1-3)[GlcNAc(b1-6)]Gal(b1-4)GlcNAc(b1-3)Gal(b1-4)Glc
# In short: as §1
# [40] = biological target: GlcNAc(b1-3)[GlcNAc(b1-6)]GalNAc
# In short: as §1
# [41] = biological target: GlcNAc(b1-3)[GlcNAc(b1-6)]GlcNAc(b1-4)GlcNAc
# In short: as §1
# [42] = biological target: GlcNAc(b1-4)Fuc
# In short: as §1
# [43] = biological target: GlcNAc(b1-4)Gal(b1-4)GlcNAc
# In short: as §1
# [44] = biological target: GlcNAc(b1-4)GlcNAc
# In short: as §1
# [45] = biological target: GlcNAc(b1-4)GlcNAc(b1-4)GlcNAc
# In short: as §1
binder,measurement,setting,value
B1,glycan array binding signal (z-score),[1],-0.25
same,glycan array binding signal (z-score),[2],-0.32
same,glycan array binding signal (z-score),[3],-0.32
same,glycan array binding signal (z-score),[4],-0.32
same,glycan array binding signal (z-score),[5],0.115
same,glycan array binding signal (z-score),[6],-0.079
same,glycan array binding signal (z-score),[7],-0.225
same,glycan array binding signal (z-score),[8],-0.159
same,glycan array binding signal (z-score),[9],-0.209
same,glycan array binding signal (z-score),[10],-0.217
same,glycan array binding signal (z-score),[11],-0.263
same,glycan array binding signal (z-score),[12],-0.324
same,glycan array binding signal (z-score),[13],0.092
same,glycan array binding signal (z-score),[14],6.6
same,glycan array binding signal (z-score),[15],-0.074
same,glycan array binding signal (z-score),[16],-0.117
same,glycan array binding signal (z-score),[17],-0.014
same,glycan array binding signal (z-score),[18],0.387
same,glycan array binding signal (z-score),[19],-0.611
same,glycan array binding signal (z-score),[20],0.016
same,glycan array binding signal (z-score),[21],-0.026
same,glycan array binding signal (z-score),[22],-0.102
same,glycan array binding signal (z-score),[23],-0.189
same,glycan array binding signal (z-score),[24],0.14
same,glycan array binding signal (z-score),[25],-0.068
same,glycan array binding signal (z-score),[26],-0.03
same,glycan array binding signal (z-score),[27],1.7
same,glycan array binding signal (z-score),[28],-0.084
same,glycan array binding signal (z-score),[29],-0.13
same,glycan array binding signal (z-score),[30],-0.149
same,glycan array binding signal (z-score),[31],-0.093
same,glycan array binding signal (z-score),[32],-0.122
same,glycan array binding signal (z-score),[33],-0.192
same,glycan array binding signal (z-score),[34],-0.094
same,glycan array binding signal (z-score),[35],-0.158
same,glycan array binding signal (z-score),[36],-0.146
same,glycan array binding signal (z-score),[37],-0.14
same,glycan array binding signal (z-score),[38],-0.461
same,glycan array binding signal (z-score),[39],0.355
same,glycan array binding signal (z-score),[40],-0.407
same,glycan array binding signal (z-score),[41],0.038
same,glycan array binding signal (z-score),[42],-0.32
same,glycan array binding signal (z-score),[43],-0.194
same,glycan array binding signal (z-score),[44],-0.344
same,glycan array binding signal (z-score),[45],0.162
